Test results published in paper PMC4336329 (PLoS ONE, 2015).
Among all 310,000 compounds or so, about 2,200 (0.71%) showed an effect of 50% or more. The effect is printed as a negative number. Some of the results follow.

Target: human ether-à-go-go-related gene (hERG) potassium channel (human, UniProt Q12809)
Assay: primary screen, population patch clamp on CHO cells stably expressing hERG

Chain of human ether-à-go-go-related gene (hERG) potassium channel (Q12809 whole entry, looked up): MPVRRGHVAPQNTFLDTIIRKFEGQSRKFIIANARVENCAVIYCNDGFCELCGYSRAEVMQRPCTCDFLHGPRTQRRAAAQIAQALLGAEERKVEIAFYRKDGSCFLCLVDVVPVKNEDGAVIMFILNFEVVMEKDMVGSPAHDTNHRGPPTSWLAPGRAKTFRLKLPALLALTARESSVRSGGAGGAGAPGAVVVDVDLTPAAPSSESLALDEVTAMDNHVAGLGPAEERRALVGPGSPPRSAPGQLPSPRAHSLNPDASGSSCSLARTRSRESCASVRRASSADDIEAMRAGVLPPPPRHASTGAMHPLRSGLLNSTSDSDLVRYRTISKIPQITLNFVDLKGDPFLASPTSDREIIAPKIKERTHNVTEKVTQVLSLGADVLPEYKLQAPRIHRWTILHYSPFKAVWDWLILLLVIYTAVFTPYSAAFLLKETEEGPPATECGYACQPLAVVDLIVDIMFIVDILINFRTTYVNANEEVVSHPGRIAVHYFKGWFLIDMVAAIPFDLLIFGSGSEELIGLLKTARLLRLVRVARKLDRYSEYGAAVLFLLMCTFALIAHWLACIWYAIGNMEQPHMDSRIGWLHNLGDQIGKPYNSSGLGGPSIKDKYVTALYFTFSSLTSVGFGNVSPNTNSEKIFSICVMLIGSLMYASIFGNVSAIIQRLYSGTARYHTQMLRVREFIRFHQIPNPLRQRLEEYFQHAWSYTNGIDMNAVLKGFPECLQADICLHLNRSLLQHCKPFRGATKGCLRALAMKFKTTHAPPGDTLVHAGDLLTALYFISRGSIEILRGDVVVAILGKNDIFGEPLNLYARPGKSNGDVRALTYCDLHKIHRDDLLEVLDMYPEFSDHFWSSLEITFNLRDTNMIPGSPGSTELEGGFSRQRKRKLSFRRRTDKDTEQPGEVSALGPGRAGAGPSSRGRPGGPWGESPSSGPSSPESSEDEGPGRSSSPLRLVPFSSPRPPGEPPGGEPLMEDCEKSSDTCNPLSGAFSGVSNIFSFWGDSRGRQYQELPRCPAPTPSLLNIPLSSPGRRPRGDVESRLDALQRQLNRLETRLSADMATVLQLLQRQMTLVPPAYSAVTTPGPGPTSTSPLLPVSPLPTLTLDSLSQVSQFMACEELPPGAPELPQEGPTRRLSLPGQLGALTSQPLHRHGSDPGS

| Compound | hERG current change (%, negative = inhibition) at 1uM |
| --- | --- |
| Clc1ncn(CCOc2ccccc2)c1Cl | 12.4% |
| O=C(Cn1cc(C(=O)c2ccco2)c2ccccc21)NC1CC1 | 11.4% |
| CCCn1c(-c2ccncc2)n[nH]c1=S | 8.8% |
| Cc1cccnc1NC(=O)c1ccc(Cl)c(S(=O)(=O)N2CCCC2)c1 | 4.21% |
| O=S(=O)(Nc1cccc(-c2ccc(N3CCOCC3)nn2)c1)c1ccc(Cl)c(Cl)c1 | 2.81% |
| CC1CCN(c2nc3ccc(C(=O)N4CCN(Cc5ccccc5)CC4)cc3s2)CC1 | 6.29% |
| Cc1nc(NC(=O)CSC2=NCCS2)sc1C(=O)N(C)C | 10.8% |
| Cc1nn(-c2nnc(C)c(=O)[nH]2)c(C)c1SCC(=O)Nc1ccc(C(C)C)cc1 | 10.2% |
| O=c1c(Cl)c(Cl)cnn1Cc1ccc(F)cc1 | 0.484% |
| COc1ccc(C(=O)Nc2nc3ccccc3[nH]2)cc1S(=O)(=O)N1CCOCC1 | -29.8% |
| COC(=O)c1ccc(C(=O)Nc2cc(Cl)ccc2Cl)cc1NC(=O)c1ccc(N(C)C)cc1 | 16.1% |
| CC(C)CC(=O)NC(NC(=O)CC(C)C)c1cccc([N+](=O)[O-])c1 | 8.63% |
| C=CCn1cc(Cl)c(=O)n(CC=C)c1=O | 8.78% |
| Cc1ccc(S(=O)(=O)NCCC(=O)OCC(=O)N(Cc2ccccc2)C(C)(C)C)cc1C | -0.298% |
| CCCCCCSc1ccc([C@@H]2[C@@H]3C(=O)N(C)C(=O)[C@@H]3[C@]3(C(=O)OC)CCCCN23)cc1OC.O=C(O)C(F)(F)F | 10.4% |
| O=C(NCc1ccccc1Cl)c1ccc2ccccc2n1 | 14.8% |
| CCOC(=O)CC(NC(=O)CCc1c(C)nc2nc(C)nn2c1C)c1ccc(C)cc1 (stereo not drawn) | 19.2% |
| CSc1c2c(nc3ncnn13)CCC2 | 6.12% |
| O=C(c1cc(Cl)nc2ccccc12)N1CCc2ccccc2C1 | 6.48% |
| CC(C)CCn1nnnc1C(c1ccccc1)N1CCN(C)CC1 (stereo not drawn) | 9.6% |
| O=C(c1ccc2c(c1)OCCO2)N1CCN(S(=O)(=O)c2c(F)cccc2F)CC1 | 10.6% |
| Cc1ccc(S(=O)(=O)N2CCC(C(=O)OC(C)C(=O)N3CCOCC3)CC2)cc1 (stereo not drawn) | 11.7% |
| O=C(Nc1ccncc1)C1CC(=O)N(c2ccc(F)cc2)C1 (stereo not drawn) | 10.7% |

| Compound | hERG current change (%, negative = inhibition) at 1uM |
| --- | --- |
| COc1ccc(OC)c(/C=N/NC(=O)CC(=O)NCc2ccccc2)c1 | 3.58% |
| CCOC(=O)CC/C(=N\NC(N)=O)c1ccc(OC)c(Cl)c1 | 1.8% |
| O=C(CSc1nc(-c2ccccc2)cs1)Nc1ccccc1[N+](=O)[O-] | 11.9% |
| S=c1[nH]nc(C2CCCCC2)n1/N=C/c1ccco1 | 5.74% |
| COc1ccc(C(=O)NCCn2ccc3ccccc32)c(OC)c1 | 9.11% |
| CCOC(=O)C(N)CSC1CC(=O)N(c2ccc(OCC)cc2)C1=O.Cl (stereo not drawn) | 5.66% |
| CCC(=O)Nc1cc(C(=O)OCC(=O)c2ccccc2Cl)ccc1C | 14.9% |
| O=S(=O)(NCc1csc(-c2cccs2)n1)c1cccc(C(F)(F)F)c1 | 8.31% |
| Cc1ccc(-n2ncc3c2CCCC3NC(=O)CCCN2CCCC2=O)cc1C (stereo not drawn) | 1.27% |
| CNCc1ccccc1Sc1cccc(O)c1.O=C(O)/C=C\C(=O)O | 7.09% |
| Cc1cc(C)cc(OCC(=O)NNC(=O)c2ccccn2)c1 | 2.77% |
| O=C(COc1ccc(Cl)cc1)NC(=S)Nc1ccccc1N1CCOCC1 | 17.4% |
| O=C(c1ccc(F)cc1Cl)N1CCN(CCc2ccccc2)CC1 | -19.9% |
| CC1(C)CC(NC(=O)Cc2ccccc2)CC(C)(C)N1.Cl | 26.2% |
| COCc1ccc(C(=O)N2CCCC(Nc3ccc4c(c3)OCCO4)C2)o1 (stereo not drawn) | 8.17% |
| COC(=O)c1c(NC(=O)c2cccs2)sc2c1CCC(C)C2 (stereo not drawn) | 9.97% |
| COc1cc(NC(=O)[C@@H](NC(=O)N2CCn3c2nc2ccccc23)C(C)C)cc(OC)c1 | 12.4% |
| N#Cc1nc(COc2ccccc2)oc1N1CCCCCC1 | 0.979% |
| Cc1cccc(NC(=S)NC2CC3CCC(C2)N3Cc2ccco2)c1C (stereo not drawn) | 1.61% |
| O=C(Nc1ccccc1F)Nc1ccccc1OC(F)F | 6.45% |
| O=C(Cc1c(F)cccc1Cl)NCC(=O)OCc1ccccc1 | -0.898% |
| CCOC(=O)/C(C#N)=C\c1ccc2c(c1)OCO2 | 7.81% |
| CCCCNS(=O)(=O)c1ccc2nc(SCC(=O)Nc3cccc(F)c3)[nH]c2c1 | 6.86% |

| Compound | hERG current change (%, negative = inhibition) at 1uM |
| --- | --- |
| COc1ccc(OCCOC(=O)CN2C(=O)NC3(CCCC3)C2=O)cc1 | 15.8% |
| COc1ccccc1CNc1ccc(C(=O)O)cc1 | 9.98% |
| COc1cccc(CNC(=O)c2cccc(NC3=NC4CS(=O)(=O)CC4S3)c2)c1 (stereo not drawn) | 10.8% |
| COC(=O)/C=C/COc1ccccc1[N+](=O)[O-] | 13.4% |
| O=C(Cn1c(=O)cnc2ccccc21)Nc1cccc(S(=O)(=O)N2CCOCC2)c1 | 1.82% |
| Fc1ccc(NCc2nnc(SCc3ccccc3)o2)cc1 | 4.21% |
| CC(C)CC(=O)Nc1ccc(Oc2ccc3c(c2)C(=O)NC3=O)cc1 | 11.2% |
| Cc1ccc(S(=O)(=O)NCCOc2nc(N3CCOCC3)nc(N3CCOCC3)n2)cc1 | -4.74% |
| O=C(Nc1cc(S(=O)(=O)N2CCCCC2)ccc1Cl)c1ccccc1NS(=O)(=O)c1ccc(F)cc1 | 7.68% |
| O=C(Nc1ccc(N2CCOCC2)c(Cl)c1)c1ccc2c(c1)OCCO2 | 6.24% |
| COc1ccccc1NC(=O)CN1CCSc2ccccc21 | 10.9% |
| CN(C(=O)c1ccc2nc(N)sc2c1)c1ccccc1 | 15.6% |
| Cc1cc(C(=O)NC2CC2)c2ccccc2n1 | 11.2% |
| O=c1[nH]c2ccccc2nc1C(Nc1ccccc1)c1ccccc1 (stereo not drawn) | 5.48% |
| CCN(CC(=O)Nc1c(F)cccc1F)C(=O)CSCC(=O)Nc1ccc(OC)cc1 | 12.2% |
| COc1ccccc1CNC(=O)COc1ccc(S(=O)(=O)N2CCOCC2)cc1 | -7.08% |
| O=C(CCNS(=O)(=O)c1ccc(Br)s1)NCc1ccccc1Cl | 9.37% |
| O=C(O)CCN1C(=O)c2ccccc2Sc2ncccc21 | 12.5% |
| CCOC(=O)c1c(NC(=O)Cn2c(C)nc3ccccc32)sc2c1CCC2 | 6.06% |
| Cc1ccccc1C(=O)Nc1cc(S(=O)(=O)N2CCOCC2)ccc1N1CCN(C)CC1 | 3.43% |
| CC(=O)Nc1ccc(S(=O)(=O)N2CCN(S(=O)(=O)N3CCCCCC3)CC2)cc1 | 9.71% |
| O=C(Cc1csc(NC(=O)Nc2cccc(Cl)c2)n1)NC1CCCC1 | 18.3% |
| Cn1c(NC(=O)c2ccccc2)cc(=O)n(C)c1=O | 8.46% |

| Compound | hERG current change (%, negative = inhibition) at 1uM |
| --- | --- |
| CCOC(=O)c1nc(C)c(C(C)=O)s1 | 10.4% |
| Cc1ccc(SCCC(=O)NCC2CCCO2)cc1 (stereo not drawn) | 21.2% |
| Cc1c(C(=O)O)oc2ccc(S(=O)(=O)NCc3ccc4c(c3)OCO4)cc12 | 9.1% |
| Cc1ccc(NS(=O)(=O)c2ccc(N3C(=O)CCC3=O)cc2)cc1 | -1.09% |
| COc1ccc(C(=O)N/N=C/c2cccnc2)cc1 | 12.3% |
| Cc1cc(=O)n2nc(N3CCCC(C(=O)Nc4ccc(C)c(C)c4)C3)sc2n1 (stereo not drawn) | -16.9% |
| COc1ccc(NC(=O)c2sccc2OS(=O)(=O)N(C)C)cc1 | 14.4% |
| CC(C)CN1CCNC(=O)C1CC(=O)NCCc1ccc(C(F)(F)F)cc1 (stereo not drawn) | 6.25% |
| Cc1ccc(C(=O)OCc2cc3ccccc3[nH]c2=O)cc1 | 12.2% |
| Cc1ccc(N2CN(Cc3cccnc3)CNC2=S)cc1 | 8.6% |
| CCOc1ccc(C(=O)NCCc2ccc3c(c2)OCCO3)cc1 | 6.92% |
| N#Cc1cnn(-c2ccccc2)c1NC(=O)CN1CCN(c2ccccc2)CC1 | 11.2% |
| COCCn1c(=N)c(C(=O)NCc2ccco2)cc2c(=O)n3ccccc3nc21 | -88% |
| S=C1NCCc2ccccc2C1c1ccccc1 (stereo not drawn) | 6.27% |
| CCSc1nnc2c(n1)OC(c1ccc(C(=O)O)cc1)N(C(C)=O)c1ccccc1-2 (stereo not drawn) | 7.28% |
| COC(=O)CC1C(=O)NCCN1C(=O)CSc1nc2ccccc2s1 (stereo not drawn) | 8.32% |
| COCCN(CCOC)C(=O)CN1C(=O)NC2(CCCc3sccc32)C1=O (stereo not drawn) | 10.5% |
| COc1ccccc1CNC(=O)CN(C)S(=O)(=O)c1cccc2cccnc12 | 6.77% |
| COc1ccc(N2CCN(C(=O)COC(=O)/C=C/c3ccc(OC(F)F)cc3)CC2)cc1 | 3.79% |
| N#CCc1nn(-c2ccccc2)c2ncnc(N)c12 | 6.31% |
| Cc1ccc(-c2csc3nnc(SCC(=O)N4CCN(Cc5ccccc5)CC4)n23)cc1 | -18.2% |
